Laboratory results reported in the supplement of paper PMC8674133.
Recombinant human monoclonal antibodies (heavy:light variable regions). ELISA EC50 on the named antigen, from 10 µg/ml down; IC50 / IC90 against spike pseudovirus on 293T-ACE2 cells, 48 h; lower = stronger. Calls: IC50 above 1,000 ng/ml = non-neutralizing; EC50 above 2,000 ng/ml = non-binder. The source prints 1000 for neutralization that was not reached; it is given as >1000 ng/ml. A few antibodies were first reported in earlier work of the same group.

B1: C2234 (protein)
chain 1: VQLVESGGGEVQPGGSLRLSCAASGLTFSSYGMHWVRQAPGKGLEWVAFIRNDGSNKYYADSVKGRFTISRDNSKNTLYLQMNSLRAEDTAVYYCAKDGGYYYESSGYFDYWGQGTLVTVSS
chain 2: IRMTQSPSSLSASVGDRVTITCQASQDISNYLNWYQQKPGKAPKLLIYDASNLETGVPSRFSGSGSGTDFTFTISSLQPEDIATYYCQQYDNLPPQFTFGPGTKVDIK
B2: C2235 (protein)
chain 1: EVQLVESGGGLIQPGGSLRLSCAASGFTVSSNYMSWVRQAPGKGLEWVSVIYSGGSTFYADSVKGRFTISRDHSKNTLYLQMNSLRAEDTAVYYCARDFGGLRFDYWGQGTLVTVSS
chain 2: IRMTQSPSSLSASVGDRVTITCQASQDISNYLNWYQQKPGKAPKLLIYDASNLETGVPSRFSGSGSGTDFTFTISSLQPEDIATYYCQQYDNLPSYTFGQGTKLEIK
B3: C2229 (protein)
chain 1: EVQLVESGGGLVKPGGSLRLSCAASGFTFSSYSMNWVRQAPGKGLEWVSSISSGSSYIYYADSMKGRFTISRDNAKNSLYLQMNSLRAEDTALYYCARERRSDYSSDWYDPPTTPRSFDYWGQGTLVTVSS
chain 2: SYELTQPPSVSVAPGQTARITCGGNNIGSKSVHWYQQKPGQAPVLVVYDDSDRPSGIPERFSGSNSGNTATLTISRVEAGDEADYYCQVWDSRSDHWVFGGGTKLTVL
B4: C2236 (protein)
chain 1: EVQLVETGGGLIQPGGSLRLSCAASGFTVSSNYMSWVRQAPGKGLEWVSVVYSGGSTFYADSVKGRFTISRDNSKNTLYLQMNSLRAEDTAVYYCARDRGDSLFDYWGQGTLVTVSS
chain 2: DIQMTQSPSTLSASVGDRVTITCRASQSFSTWLAWYQQKPGKAPKLLIYKASSLESGVPSRFSGSGSGTEFTLTISSLQPDDFATYYCQHYNSYSPGGTFGQGTKVEIK
B5: C2237 (protein)
chain 1: EVQLVESGGGLIQPGGSLRLSCAASGFTVSSNYMSWVRQAPGKGLEWVSVLYSGGSTFYADSVKGRFTISRDNSKNTLYLQMNSLRAEDTAFYYCAREVYAMDVWGQGTTVTVSS
chain 2: DIQLTQSPSFLSASVGDRVTITCRASQGISSYLAWYQQKPGKAPKLLIYAASTLQSGVPSRFSGSGSGTEFTLTISSLQPEDFATYYCQQLNSYPGYTFGQGTKLEIK
B6: C2238 (protein)
chain 1: QVQLQQWGAGLLKPSETLSLSCAVYGGSLSGYYWSWIRQPPGKGLEWIGEINHFGSTGYNPSLKSRVTISVDTSKSQFSVKLSSVTAADTAVYYCARKPLLYSNLSPGAFDIWGQGTMVTVSS
chain 2: QSALTQPASVSGSPGQSITISCTGTSSDVGGYHYVYVSWYQQHPGKAPKLMIYEVSNRPSGVSNRFSGSKSGNTASLTISGLQAEDEADYYCSSYTSSSALWVFGGGTKLTVL
B7: C2208 (protein)
chain 1: EVQLLESGGGLVQPGGSLRLSCAASGFTFSSYAMSWVRQAPGKGLEWVSTINGSGGSTYNADSVKGRFTISRDNSKNTLYLQMNSLRAEDTAVYYCAKDLHYDNSGIDDYYYYYGMDVWGQGTTVTVSS
chain 2: SYELTQPPSVSVSPGQTASITCSGDKLGDKYACWYQQKPGQSPVLVIYQDTKRPSGIPERFSGSNSGNTATLTISGTQVMDEADYYCQAWGSSTFYVFGTGTRVTVL
B8: C2239 (protein)
chain 1: EVQLLESGGGLVQPGGSLRLSCSASGFTYSYFAMSWVRQAPGKGLEWVSTISGSGGASYYADSVKGRFAISRDNSKDTMYLQMNRLRAEDTAVYYCAKEKFNGDYGGVVDYWGQGTLVTVSS
chain 2: IRMTQSPSSLSASVGDRVTITCQASQDIRKFLNWYQQKPGKAPKLLIYDASNLETGVPSRFSGSGSGTEFTLIISSLQPEDIATYCCQQYDNLPITVGGGTKVEIK
B9: C2240 (protein)
chain 1: QVQLVESGGGLVKPGGSLRLSCAASGFMFSDYYMGWVRQSPGKGLEWLSYISGSSNVIGYADSVKGRFTISRDNAKTSLYLQMNSLAADDTAVYYCARGEQTGVPGGWLDSWGQGTLVTVSS
chain 2: DIQMTQSPSSVSASVGDRVTITCRASQGISGWLAWYQQKPGKAPELLISAASSLQSGVPSRFSGSGSGTDFTLTISGLRPEDFATYYCQQTDSFPYTFGQGTKLEIK
B10: C2459 (protein)
chain 1: QVQLVQSGAEVKKPGASVKVSCKASGYTFTSYDINWVRQATGQGLEWMGWMNPNSGNTGYAQKFQGRVTMTRNTSISTAYMELSSLRSEDTAVYYCARGSLIFGVVTHFDYWGQGTLVTVSS
chain 2: SYELTQPPSVSVAPGQTARIACGGDNIGSKNVHWYQQKPGQAPVLVVYDDSDRPSGIPERFSGSNSGNTATLTISRVEAGDEADYYCQVWDSSSDHPNWVFGGGTKLTVL
B11: C2470 (protein)
chain 1: QVQLVQSGAEVKKPGASVKVSCKASGYTFTSYGFSWVRQAPAQGLEWMGWISAYNGNTKYAQKFQGRVTMTTDTSTSTAYMELRSLRSDDTAVYYCARALTGVYNWFDPWGQGTLVTVSS
chain 2: NFMLTQPHSVSESPGKTVTISCTGSSGSIASNYVQWYQQRPGSAPTTVIYEDNQRPSGVPDRFSGSIDSSSNSASLTISGLKTEDEADYYCQSYDTSNVVFGGGTKLTVL
B12: C2406 (protein)
chain 1: EVQLVESGGGLVQPGGSLRLSCAASEFTVSSNYMSWVRQAPGKGLEWVSVIYSGGSTYYADSVKGRFTISRDNSKNTLYLQMNSLRAEDTAIYYCARDRGLVSDYWGQGTLVTVSS
chain 2: IRMTQSPSSLSASVGDRVTITCQASQDISNYLNWYQQKPGKAPKLLIYDASNLETGVPSRFSGSGSGTDFTFTISSLQPEDIATYYCQQYDNLPRTFGGGTKVEIK
B13: C2460 (protein)
chain 1: EVQLVESGGGLIQPGGSLRLSCAASVITVSSNYMSWVRQAPGKGLEWVSLIYSGGSTYYADSVKGRFTISRDNSKNTLYLQMNSLRAEDTAVYYCARDLQQRGGMDVWGQGTTVTVSS
chain 2: IRMTQSPSSLSASVGDRVTITCQASQDISNFLNWFQQKPGKAPKLLIYDASNLGAGVPSRFSGSGSGTDFTFTISGLQPEDIATYYCQQYDNLPITFGQGTRLEIK
B14: C2408 (protein)
chain 1: VQLVESGGGVVQPGRSLRLSCAASGFSFSRYGMHWVRQAPGKGLEWVAVISYDGSNKDYVDSVKGRFTISRDSSKNTLYLQMNSLRAEDTAVYYCAKQGEIYCSAGNCYSGYYDYWGQGTLVTVSS
chain 2: EIVLTQSPGTLSLSPGERATLSCRASQSVSSSYLAWYQQKPGQAPRLLISGASSRAAGIPDRFRGSGSGTDFTLTISRLEPEDFAVYYCQQYGSSPGTFGQGTKVEIK
B15: C2409 (protein)
chain 1: QVQLVQSGAEVKKPGASVKVSCKASGYTFTSYDIHWVRQATGQGLEWMGWMNPNSGNTGYAQTFQGRVSMTRNTSIRTAYMELSSLRSEDTAVYYCARGSLIFGVVTHFDYWGQGALVTVSS
chain 2: SYELTQPPSVSVAPGQTARIACGGDNIGSKNVHWYQQKPGQAPVLVVYDDSDRPSGIPERFSGSNSGNTATLTISRVEAGDEADYYCQVWDSSYDHPNWVFGGGTKLTVL
B16: C2471 (protein)
chain 1: QVQLVQSGAEVKKPGASVKVSCKASGYTFTSYGMSWVRQAPGQGLEWMGWISTYNGNKKYAQKFQGRVTMTTDTSTSTAYMELRSLRFDDTAVYYCARALTGVYNWFDPWGQGTLVTVSS
chain 2: NFMLTQPHSVSESPGKTVTISCTGSSGSIATNYVQWYQQRPGSAPTTVIYEDNQRPSGVPDRFSGSIDSSSNSASLTISGLKTEDEADYYCQSYDGTNVVFGGGTKLTVL

Molecular target: SARS-CoV-2 Wuhan-Hu-1 spike pseudovirus
Experiment: pseudovirus neutralization IC50; higher = weaker neutralization
Description: (§1)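 Single-round luciferase reporter pseudovirus mixed with antibody dilutions and put on 293T-ACE2 cells for 48 h; signal relative to no-antibody wells, four-parameter fit.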

| Binder | pseudovirus neutralization IC50 [µg/mL] |
| --- | --- |
| B1 | > 1 |
| B2 | 0.0171 |
| B3 | 0.0229 |
| B4 | 0.00715 |
| B5 | 0.00791 |
| B6 | > 1 |
| B7 | 0.249 |
| B8 | > 1 |
| B9 | > 1 |
| B10 | 0.199 |
| B11 | 0.501 |
| B12 | 0.888 |
| B13 | 0.00693 |
| B14 | > 1 |
| B15 | 0.173 |
| B16 | 0.346 |

Molecular target: SARS-CoV-2 Wuhan-Hu-1 spike pseudovirus
Experiment: pseudovirus neutralization IC90; higher = weaker neutralization
Description: as §1

| Binder | pseudovirus neutralization IC90 [µg/mL] |
| --- | --- |
| B1 | > 1 |
| B2 | 0.0726 |
| B3 | 0.405 |
| B4 | 0.0532 |
| B5 | 0.0474 |
| B6 | > 1 |
| B7 | > 1 |
| B8 | > 1 |
| B9 | > 1 |
| B10 | > 1 |
| B11 | > 1 |
| B12 | > 1 |
| B13 | 0.0484 |
| B14 | > 1 |
| B15 | > 1 |
| B16 | > 1 |

Molecular target: SARS-CoV-2 Wuhan-Hu-1 spike receptor-binding domain
Experiment: ELISA binding EC50; higher = weaker binding; ELISA of recombinant human antibody on coated antigen, from 10 µg/ml in fourfold dilutions; four-parameter fit.

| Binder | ELISA binding EC50 [µg/mL] |
| --- | --- |
| B1 | 0.00185 |
| B2 | 0.00137 |
| B3 | 0.00256 |
| B4 | 0.00169 |
| B5 | 0.00203 |
| B6 | 5.17 |
| B7 | 0.0025 |
| B8 | 0.0133 |
| B9 | 0.00206 |
| B10 | 0.00352 |
| B11 | 0.00141 |
| B12 | 0.00316 |
| B13 | 0.00189 |
| B14 | 0.00129 |
| B15 | 0.00236 |
| B16 | 0.00166 |
